From patent US20260217645A1, “AMINO LIPID COMPOUND, AND PREPARATION METHOD THEREFOR AND USE THEREOF” (SHENZHEN SHENXIN BIOTECHNOLOGY CO., LTD., priority 2023, published 2026)
The name of at least one read-out is uncertain.

Test system: Female BALB/c mice
Assay: In vivo delivery of Fluc mRNA-encapsulating lipid nanoparticles (IVIS luciferase imaging)
Settings: Fluc mRNA LNP, tail vein injection (IV), volume injected 40 μL, 6 hours after injection

| SMILES | Average number of photons (Liver) | Average number of photons (Spleen) | Average number of photons (Total in-vivo flux) |
| --- | --- | --- | --- |
| CCCCCCCCCOC(=O)CCCCCCCN(CCO)CCCCCCCC(=O)OC(CCCCCCCC)CCCCCCCC [compound 030, reference compound] | 1.20E+07 p/s/cm^2/sr | 4.93E+06 p/s/cm^2/sr | 4.33E+07 p/s/cm^2/sr |

Same assay, conditions: Fluc mRNA LNP, tail vein injection (IV), volume injected 50 μL, 6 hours after injection

| SMILES | Average number of photons (Liver) | Average number of photons (Spleen) | Average number of photons (Total in-vivo flux) |
| --- | --- | --- | --- |
| CCCCCCCCCOC(=O)CCCCCCCN(CCO)CCCCCCCC(=O)OC(CCCCCCCC)CCCCCCCC [compound 030, reference compound] | 3.27E+07 p/s/cm^2/sr | 6.08E+06 p/s/cm^2/sr | 1.21E+08 p/s/cm^2/sr |

Same assay, conditions: Fluc mRNA LNP, tail vein injection (IV), volume injected 70 μL, 6 hours after injection

| SMILES | Average number of photons (Liver) | Average number of photons (Spleen) | Average number of photons (Total in-vivo flux) |
| --- | --- | --- | --- |
| CCCCCCCCCOC(=O)CCCCCCCN(CCO)CCCCCCCC(=O)OC(CCCCCCCC)CCCCCCCC [compound 030, reference compound] | 1.29E+08 p/s/cm^2/sr | 2.73E+07 p/s/cm^2/sr | 4.89E+08 p/s/cm^2/sr |
| CCCCCCCCC(C)OC(=O)CCCCCCCN(CCCCCCCC(=O)OC(CCCCCCCC)CCCCCCCC)CCCNc1c(NC)c(=O)c1=O (stereo not drawn) [compound 1500, reference compound] | 2.17E+06 p/s/cm^2/sr | 7.30E+06 p/s/cm^2/sr | 1.48E+07 p/s/cm^2/sr |
| CCCCCCCCC(C)OC(=O)CCCCCCCN(CCCCCCCC(=O)OC(CCCCCCCC)CCCCCCCC)CCCNC(=O)CNc1c(NC)c(=O)c1=O (stereo not drawn) [compound 1501] | 2.12E+06 p/s/cm^2/sr | 3.22E+06 p/s/cm^2/sr | 1.04E+07 p/s/cm^2/sr |
| CCCCCCCCC(C)OC(=O)CCCCCCCN(CCCCCCCC(=O)OC(CCCCCCCC)CCCCCCCC)CCCNC(=O)CCNc1c(NC)c(=O)c1=O (stereo not drawn) [compound 1502] | 8.70E+06 p/s/cm^2/sr | 1.16E+07 p/s/cm^2/sr | 4.55E+07 p/s/cm^2/sr |
| CCCCCCCCC(C)OC(=O)CCCCCCCN(CCCCCCCC(=O)OC(CCCCCCCC)CCCCCCCC)CCCCNC(=O)CCNc1c(NC)c(=O)c1=O (stereo not drawn) [compound 1503] | 3.11E+07 p/s/cm^2/sr | 1.04E+07 p/s/cm^2/sr | 1.93E+08 p/s/cm^2/sr |
| CCCCCCCCC(C)OC(=O)CCCCCCCN(CCCCCCCC(=O)OC(CCCCCCCC)CCCCCCCC)CCCCNC(=O)CNc1c(NC)c(=O)c1=O (stereo not drawn) [compound 1504] | 4.47E+06 p/s/cm^2/sr | 8.59E+06 p/s/cm^2/sr | 2.17E+07 p/s/cm^2/sr |
| CCCCCCCOC(CCCOC(=O)CCCCCCCN(CCCCCCCC(=O)OCCCC(OCCCCCCC)OCCCCCCC)CCCNC(=O)C(O)CNc1c(NC)c(=O)c1=O)OCCCCCCC (stereo not drawn) [compound 1512] | 2.69E+07 p/s/cm^2/sr | 1.20E+07 p/s/cm^2/sr | 1.82E+08 p/s/cm^2/sr |
| CCCCCCOC(CCCOC(=O)CCCCCCCN(CCCCCCCC(=O)OCCCC(OCCCCCC)OCCCCCC)CCCNC(=O)CCNc1c(NC)c(=O)c1=O)OCCCCCC [compound 1525] | 7.33E+06 p/s/cm^2/sr | 4.06E+06 p/s/cm^2/sr | 3.22E+07 p/s/cm^2/sr |
| CCCCCCOC(CCCOC(=O)CCCCCCCN(CCCCCCCC(=O)OCCCC(OCCCCCC)OCCCCCC)CCCNC(=O)C(O)CNc1c(NC)c(=O)c1=O)OCCCCCC (stereo not drawn) [compound 1526] | 7.95E+06 p/s/cm^2/sr | 3.25E+07 p/s/cm^2/sr | 3.83E+07 p/s/cm^2/sr |
| CCCCCCCOC(CCCOC(=O)CCCCCCCN(CCCCCCCC(=O)OCCCC(OCCCCCCC)OCCCCCCC)CCCNC(=O)[C@@H](O)CNc1c(NC)c(=O)c1=O)OCCCCCCC [compound 1532] | 1.23E+07 p/s/cm^2/sr | 4.21E+06 p/s/cm^2/sr | 3.96E+07 p/s/cm^2/sr |
